According to PubChem BioAssay AID2546 (National Center for Advancing Translational Sciences (NCATS), 2010):
The campaign covered roughly 310,000 compounds. About 11,000 (3.5%) were called active. Inconclusive results, whose numbers are uncertain, are shown with a selection of clear calls. Calls follow the shape of the dose curve; as a rule, active = well fitted inhibition curve with a large enough effect; inconclusive = small, poorly fitted or top-dose-only effect, or effect the other way; inactive = flat fitted curve, though single readings scatter. Potencies of inconclusive entries are left out as doubtful fits.

Test: VP16 counterscreen qHTS for inhibitors of ROR gamma transcriptional activity;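 also: Gal4-VP16 expression switched on by copper sulfate through the metallothionein promoter; nearly all actives have a fitted effect of over 50% in size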
Conditions: Drosophila S2 Gal4-VP16 UAS-luciferase, luminescence, 20 h; activity, negative = inhibition: at 53.6 µM (top of the series)
% is scaled to controls: 0 for no effect and ±100 for the full control effect; potency is read from the fitted curve at half-maximal effect; tags tell the direction and shape of the fitted curve.

Row | SMILES | Potency | activity, negative = inhibition
1 | O=C(/C=C/c1cc2c(cc1Br)OCO2)NCc1ccc(F)cc1 | inconclusive [inhibitor, single point] | 
2 | Cc1cc(C)cc(NC(=S)Nc2cccc3cnccc23)c1 | inconclusive [inhibitor, single point] | 
3 | O=C(CN(c1ccc(F)cc1)S(=O)(=O)c1ccccc1)NC1CC2CCC1C2 (centres undefined) |  | inactive: -0.638%
4 | CC(=O)Nc1ccc(S(=O)(=O)NCc2ccncc2)cc1 | active: 2 µM | 
5 | CC(C)(C)c1cc(OC(=O)c2ccccc2F)ccc1O | inconclusive [inhibitor, single point] | 
6 | CCOC(=O)CSc1nnc(-c2ccc(OC)cc2OC)o1 | inconclusive [inhibitor, single point] | 
7 | COc1cccc2c1OC1(CCN(C(C)C)CC1)N1N=C(c3cccnc3)CC21 (centres undefined) | inconclusive [inhibitor, partial curve, poor fit] | 
8 | CNc1sc(C(=O)c2ccc(F)cc2)c(N)c1-c1nc2ccccc2s1 | inconclusive [inhibitor, single point] | 
9 | COc1ccccc1OCCNC(=O)c1cc(SC)ccc1Cl | inconclusive [activator, single point] | 
10 | O=C(NNC(=S)NC(=O)c1cccs1)c1ccc(NC(=O)c2ccccc2)cc1 | active: 6.31 µM | 
11 | COc1ccc(-c2ccc(S(=O)(=O)NCC3CCCO3)cc2)cc1 (centres undefined) | inconclusive [inhibitor, single point] | 
12 | COc1ccc(CCNC(=O)C(=O)NCC2OCCN2S(=O)(=O)c2ccc(OC)c(OC)c2)cc1 (centres undefined) |  | inactive: 2.51%
13 | c1ccc(-c2cn3nc4c(nc3n2)CCCC4)cc1 | inconclusive [inhibitor, partial curve] | 
14 | Cc1n(N)c2ccccc2[n+]1CC(=O)c1ccccc1 |  | inactive: 4.38%
15 | CCC(Oc1cc(Cl)ccc1Cl)C(=O)NN1C(=O)C2C3CCC(C3=C(C)C)C2C1=O (centres undefined) | inconclusive [inhibitor, single point] | 
16 | CCCc1nnc(NC(=O)CSc2nc3ccccc3[nH]2)s1 | inconclusive [inhibitor, single point] | 
17 | COc1ccc(S(=O)(=O)N2CCCC2C(=O)Nc2nc3c(s2)CCCC3)cc1 (centres undefined) | inconclusive [inhibitor, single point] | 
18 | CCOC(=O)C1=C(C)NC(=S)NC1c1ccsc1 (centres undefined) | inconclusive [inhibitor, single point] | 
19 | C#CCOCCOCCOCCNc1nc(N2CCN(C(=O)[C@H](Cc3cc4ccccc4[nH]3)n3cc([C@@H](N)C(C)CC)nn3)CC2)nc(N2CCN(C(=O)[C@H](Cc3cc4ccccc4[nH]3)n3cc([C@@H](N)Cc4ccc(O)cc4)nn3)CC2)n1 (some centres undefined) | inconclusive [inhibitor, single point] | 
